According to PubChem BioAssay AID624417 (National Center for Advancing Translational Sciences (NCATS), 2012):
In all, about 410,000 compounds went through this assay and about 6,400 (1.6%) were called active. This list was built around the results that the source calls inconclusive (neither active nor inactive); the mix of calls is not that of the screen. The call rests on the fitted dose curve; in most records, active means well fitted inhibition curve with a large enough effect; inconclusive means small, poorly fitted or top-dose-only effect; inactive means no such curve, though single readings can be large or run the other way. Potencies of inconclusive entries are doubtful fits and often do not repeat.

The compounds below were run against Glucagon-like peptide 1 receptor (Homo sapiens) (UniProt P43220) (assay: qHTS of GLP-1 Receptor Inverse Agonists (Inhibition Mode)). Details: HEK293 GLP-1R CRE-luciferase, luminescence, 24 h, GLP-1R form is constitutively active; series mostly up to 38.3 µM.
UniProt P43220, sequence (P43220 whole entry, looked up): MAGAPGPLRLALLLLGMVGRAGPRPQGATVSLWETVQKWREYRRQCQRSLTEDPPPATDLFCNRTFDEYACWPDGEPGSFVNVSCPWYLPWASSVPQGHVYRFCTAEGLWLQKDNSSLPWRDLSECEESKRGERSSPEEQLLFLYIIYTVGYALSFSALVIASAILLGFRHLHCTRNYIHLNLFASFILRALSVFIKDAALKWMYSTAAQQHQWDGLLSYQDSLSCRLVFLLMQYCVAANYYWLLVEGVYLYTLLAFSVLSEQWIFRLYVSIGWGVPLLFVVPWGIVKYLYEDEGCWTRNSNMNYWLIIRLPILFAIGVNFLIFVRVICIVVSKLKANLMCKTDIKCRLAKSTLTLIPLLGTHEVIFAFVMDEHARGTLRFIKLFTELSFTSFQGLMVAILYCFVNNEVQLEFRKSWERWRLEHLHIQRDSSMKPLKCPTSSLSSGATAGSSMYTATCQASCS
Procedure, shortened: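 Stable HEK293 clone (constitutively active GLP-1R + cAMP-response luciferase); 200 cells/uL plated, 12 h pre-culture, compound 24 hr, 37 deg C/5% CO2; detection reagent 12 min RT; luminescence.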
Further: nearly all actives have a fitted effect of over 55% in size.
Potency means the concentration at half of the fitted maximal effect; tags describe the fitted curve by direction and shape.

Potency, inconclusive:
COc1ccc(C(NC(=O)C2CCN(Cc3ccc(Oc4ccccc4)cc3)CC2)c2ccccn2)cc1 (centres undefined) 28.2 µM [inhibitor, single point]
CCOc1ccccc1NC(=O)C1C2CCC3C(CCC21)C3(Cl)Cl (centres undefined) 15.8 µM [inhibitor, partial curve, poor fit]
COc1nc(Nc2cccc(C)c2)nc(N2CCCCC2)n1 10 µM [inhibitor, partial curve, poor fit]
C[C@H](NC(=O)N1CCn2c1nc1ccccc12)C(=O)NCc1ccc(F)cc1 2.51 µM [inhibitor, full curve]
Cc1cc([N+](=O)[O-])nn1Cc1c(F)c(F)c(F)c(F)c1F 12.6 µM [inhibitor, partial curve, poor fit]
CCCc1ccc2oc(C(=O)NCCc3cnn(C)c3)c(C)c2c1 8.91 µM [inhibitor, partial curve]
Cc1c(C(=O)NCc2ccccc2C(F)(F)F)sc(=O)n1Cc1ccc(Cl)c(Cl)c1 10 µM [inhibitor, partial curve, poor fit]
COc1cc(/C=N\NC(=O)c2ccc(-c3ccccc3)cc2)cc(Br)c1O 11.2 µM [inhibitor, partial curve, poor fit]
Cc1ccccc1C(=O)N1CCN(c2ccc(NC(=O)c3ccc4c(c3)OCCO4)cc2)CC1 10 µM [inhibitor, partial curve, poor fit]
CC(=O)c1ccc(NC(=O)c2nc(-c3ccc(C)cc3)n3c2CCCCC3)cc1 10 µM [inhibitor, partial curve, poor fit]
COc1ccc(Cl)cc1NS(=O)(=O)c1cc(Br)cnc1N 10 µM [inhibitor, partial curve]
CC(C)C1C(=O)CC(c2ccccc2)NC1c1ccccc1 (centres undefined) 15.8 µM [inhibitor, single point]
O=S(=O)(c1ccc(Cl)cc1)N1CCC(N2CCCCCC2)CC1 10 µM [inhibitor, single point]
O=C(COc1ccc(Br)cc1CO)N1CCCc2ccccc21 7.08 µM [inhibitor, partial curve, poor fit]
COc1ccccc1NNC(=O)C(O)(c1ccccc1OC)c1ccccc1OC 11.2 µM [inhibitor, partial curve, poor fit]
COC(=O)c1ccccc1NC(=O)CN(C)Cc1ccccc1 10 µM [inhibitor, partial curve, poor fit]
COc1ccc(C(=O)NC2CCCc3c2cnn3-c2cccc(C)c2C)c(OC)n1 (centres undefined) 5.01 µM [inhibitor, full curve, poor fit]
O=C(NC(Cc1c[nH]c2ccccc12)C(=O)N/N=C/c1ccc(Cl)cc1)c1cccs1 (centres undefined) 11.2 µM [inhibitor, partial curve, poor fit]
Cc1ccccc1C1CCCN(C(=O)c2cc(COc3c(F)cccc3F)on2)C1 (centres undefined) 14.1 µM [inhibitor, single point]
COc1ccc(-c2onc(C)c2-c2cnn(-c3ccccc3)c2)c(O)c1C 28.2 µM [inhibitor, single point]
O=C(Nc1ccccc1)c1cc(C2CCCCN2C(=O)OCc2ccccc2)on1 (centres undefined) 11.2 µM [inhibitor, single point]
Cc1ccc(O)c(C2=NNC(O)(C(F)(F)F)C2)c1 (centres undefined) 10 µM [inhibitor, partial curve, poor fit]
Cc1ccc(-c2csc(=Nc3cccnc3)n2CCCn2ccnc2)cc1C 5.62 µM [inhibitor, partial curve, poor fit]
Cc1ccc(C)c(CN2CCC(CNC(=O)Nc3ccc(F)c(Cl)c3)CC2)c1 3.98 µM [inhibitor, full curve, poor fit]
COc1cccc(C(c2nnnn2C2CCCCC2)N2CCN(C/C=C/c3ccccc3)CC2)c1OC (centres undefined) 22.4 µM [inhibitor, single point]
CC(=O)Nc1ccc2nc(NC(=O)c3cccs3)sc2c1 31.6 µM [inhibitor, single point]
CCOc1cccc(N(C(=O)Cc2cccs2)C(C(=O)NC2CCCCC2)c2cccn2C)c1 (centres undefined) 14.1 µM [inhibitor, single point]
Cc1ccc(NC(=O)CN2C(=O)NC3(CCCCCC3)C2=O)cc1Cl 12.6 µM [inhibitor, partial curve, poor fit]
COC(=O)[C@H](C)N(Cc1ccc(Cl)c(Cl)c1)S(=O)(=O)CCN1CCCC1 12.6 µM [inhibitor, single point]
CCc1ccc(Nc2cc(=O)n(C3CCCCC3)c(=O)[nH]2)cc1 12.6 µM [inhibitor, partial curve, poor fit]
Cc1ccc(NC(=O)c2ccccc2Cl)c(Cl)c1 28.2 µM [inhibitor, single point]
Cc1ccc(NC(=O)c2cnc(N3CCN(c4ccccn4)CC3)c3ccccc23)c(Br)c1 3.98 µM [inhibitor, partial curve, poor fit]
COC(=O)C(NC(=O)c1ccco1)(Nc1nc(C2CC2)cs1)C(F)(F)F (centres undefined) 10 µM [inhibitor, partial curve]
CCOC(=O)c1sc2nc(CSc3ccccc3)nc(N3CCCN(C)CC3)c2c1C 7.94 µM [inhibitor, partial curve, poor fit]
CCCNC(=O)c1sc2c(c1C(=O)Nc1ccccn1)CCCC2 12.6 µM [inhibitor, single point]
COC(=O)c1c(C)[nH]c(C(=O)C(C)OC(=O)c2cc(C)oc2C)c1C (centres undefined) 3.55 µM [inhibitor, partial curve, poor fit]
CC(=O)Nc1nc(-c2ccccc2)nc(-c2ccccc2OC(C)=O)n1 8.91 µM [inhibitor, partial curve]
Cc1ccc(C(=O)N2CCCC(N(C)Cc3ccccc3)C2)s1 (centres undefined) 31.6 µM [inhibitor, single point]
O=c1c2c(ncn2C2CCCC2)n(Cc2ccccc2)c(=O)n1CCOc1ccc(Br)cc1 11.2 µM [inhibitor, single point]
O=C(Nc1ccc(S(=O)(=O)NCc2ccccc2)cc1)c1ccc(Br)o1 22.4 µM [inhibitor, single point]
Cc1noc(C)c1S(=O)(=O)N(CC(=O)NC1CCC(C)CC1)c1ccc(C(C)C)cc1 (centres undefined) 28.2 µM [inhibitor, single point]
CCCn1nc(NS(=O)(=O)c2cccc3nonc23)c2cc3cccc(C)c3nc21 11.2 µM [inhibitor, partial curve, poor fit]
Cc1nc(N2CCN(C)CC2)c2c(C)c(C(=O)Nc3ccc(F)cc3)sc2n1 10 µM [inhibitor, single point]
CCc1ccc(C(C(=O)NCc2ccccc2)N(C(=O)c2csnn2)C2CC2)cc1 (centres undefined) 15.8 µM [inhibitor, partial curve, poor fit]
COc1cccc(/C=N/NC(=O)c2nnn(-c3nonc3N)c2C(C)C)c1OCc1ccc(F)cc1 10 µM [inhibitor, partial curve, poor fit]
O=C(N/N=C\c1ccc([N+](=O)[O-])s1)c1cncc(Br)c1 10 µM [inhibitor, partial curve, poor fit]

Potency, inactive:
O=C(NCc1ccccn1)c1ccc(Cl)c(NC2=NC3CS(=O)(=O)CC3S2)c1 (centres undefined)
COC(=O)c1cc2nc(-c3ccccc3)cc(C)n2n1
O=C(C[C@H]1C/C=C\C[C@@H](Cc2ccc(F)cc2)C(=O)O[C@H](c2ccccc2)CNC1=O)NCCO
CCOC(=O)C1=C(CNCCOc2ccc(OC)cc2)NC(=O)NC1c1ccc2c(c1)OCO2 (centres undefined)
COc1ccc(OCC(=O)NC2CC(=O)N(c3ccc4c(c3)OCCO4)C2)cc1 (centres undefined)
Cc1cc(C(F)F)n2nc(C(=O)Nc3ccccc3F)nc2n1
CCOC(=O)c1c(-c2ccccc2)csc1NC(=O)c1ccc(S(=O)(=O)N2CC(C)OC(C)C2)cc1 (centres undefined)
O=c1[nH]c(/C=C\c2ccc(O)c(O)c2)nc(O)c1[N+](=O)[O-]
COc1ccc(-n2nc3cc(C)c(NC(=S)NC(=O)c4ccccc4C)cc3n2)cc1
CCC(C(=O)NCc1ccco1)N(C(=O)CNS(=O)(=O)c1ccccc1)C1CCCCC1 (centres undefined)
COc1ccccc1NC(=O)N1CCC(NC(=O)C(Cc2ccccc2F)NC(C)=O)CC1 (centres undefined)
CCN(C(=O)Cn1cnc2onc(-c3ccc(F)cc3)c2c1=O)c1cc(C)ccc1C
Cc1onc(-c2ccccc2)c1C(=O)Nc1ccccc1NC(=O)c1c(-c2ccccc2)noc1C
Cc1ccccc1-c1nnc(SCC(=O)N(C)C2CCCCC2)o1
O=C(CSc1ccc(-c2cccs2)nn1)c1cccs1
CCOC(=O)c1[nH]c(C)c(CCC(=O)NCc2ccc(OC)cc2)c1C
Cc1ccc(CNC(=O)c2cc(-c3ccccc3C)nn2CC2CC(c3cccnc3)=NO2)cc1 (centres undefined)

Potency, active:
O=C(NCCN1CCN(c2ccccc2)CC1)Nc1cccc(Cl)c1 2.51 µM
